Reference: paper PMC12136788
The other results are listed elsewhere or left out.

T1: UNK ZnF1-6 (called full-length) (human, UniProt Q9C0B0 30-357)
T1 sequence: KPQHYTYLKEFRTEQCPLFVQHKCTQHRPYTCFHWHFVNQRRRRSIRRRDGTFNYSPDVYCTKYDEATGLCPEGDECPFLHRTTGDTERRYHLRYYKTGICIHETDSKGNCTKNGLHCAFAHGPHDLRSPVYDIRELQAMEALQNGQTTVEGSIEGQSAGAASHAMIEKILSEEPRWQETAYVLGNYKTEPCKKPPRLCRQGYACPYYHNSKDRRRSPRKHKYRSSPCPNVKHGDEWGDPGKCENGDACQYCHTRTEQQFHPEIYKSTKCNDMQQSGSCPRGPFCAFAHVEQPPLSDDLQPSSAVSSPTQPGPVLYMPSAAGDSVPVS

B1: chr1:109313209:109313310:-|3pUTR|ENSG00000134243|msi1|FALSE|unique (ssRNA)
RNA: GGGAGUUCUACAGUCCGACGAUCCAGGGCAAUAUUUUUAACUUGGGGCAGGAAGAAGGGAGCAGCAGAGAAUUGACUAGAUAUAGCACCUAUUAAAAGAGAACUCUUGCUUCUUCUGAGAUUUUUCAAGCUGUGCUUUGUGUGCAACAGAGGAUUGAGCAUCA
B2: chr6:125889563:125889680:+|CDS|ENSG00000111912|unk|FALSE|unique (ssRNA)
RNA: GGGAGUUCUACAGUCCGACGAUCCAAGCAGUCUGGUUCGCCAGAAAGCCGAGUAGAAAACACACUGAACAUACAUGAAGAUUUAGAUAAAGUUAAACUCAUUGAAUAUUACCUGACUAAGAACAAAGAAGGGCCACAGGUAUCCAACAGAGGAUUGAGCAUCA
B3: chr9:125437660:125437767:-|3pUTR|ENSG00000119487|unk|total|mutant (ssRNA)
RNA: GGGAGUUCUACAGUCCGACGAUCUGAUGUCCUUACUGUCCCCAGCCAGGGCCGGGGACCGGUGUUUCACUGAGGACCUGCAUCCGAAACAUUUUUUAAAUUGUUGUACAGGAAGAGAUGUGUCUAAAACAGCAUCUUAAAGCUCAACAGAGGAUUGAGCAUCA
B4: chr1:109062750:109062855:-|3pUTR|ENSG00000197780|unk|FALSE|unique (ssRNA)
RNA: GGGAGUUCUACAGUCCGACGAUCGCUUUCAGUAGCAGGAAUGGCAUUGUUUAAAAAGCUGAUGGCAGGGUAAGCAUUUGGGUUAGUGUUUUAUUAACAUAUUUGUAAGUACUUGUUCAUUGUGGAAAUGUGUCCUUGACUAAACAACAGAGGAUUGAGCAUCA
B5: chr9:69711526:69711627:-|3pUTR|ENSG00000188647|unk|total|mutant (ssRNA)
RNA: GGGAGUUCUACAGUCCGACGAUCGAACUGCUGCCGUCUUCUGCAAUCAGUCUCUGUAUUGGUAUAUCCAGUACUAUCGGGUUCCGGUUCUUUUUAUUUUUCCUUAAAUCUUACUUGUUUCCCGCGUCUUAAGAGUGGUAAUGGCAACAGAGGAUUGAGCAUCA
B6: chr14:22906194:22906368:-|CDS|ENSG00000100461|control|control|control (ssRNA)
RNA: GGGAGUUCUACAGUCCGACGAUCAGCCGAAGUCCAGGUCGGCAGUGUCGUCACCGUAGCCGUAGCUGGGAUCGUCGACAUGGUAGUGAGUCGCGAAGUCGGGACCAUCGUCGUGAGGAUCGUGUGCAUUACAGGAGUCCUCCACAACAGAGGAUUGAGCAUCA
B7: chr1:214641902:214642005:+|CDS|ENSG00000117724|unk|FALSE|bound_elsewhere (ssRNA)
RNA: GGGAGUUCUACAGUCCGACGAUCAGAAAUCAAUGUAAUUUUAAACCUCAGAUGGAUCUUGAAGUUAAAGAAAUUUCUCUAGAUAGUUAUAAUGCGCAGUUGGUGCAAUUAGAAGCUAUGCUAAGAAAUAAGGAAUUAAAACUUCAACAGAGGAUUGAGCAUCA
B8: ENSG00000070961:be:win_3801|3pUTR|ENSG00000070961|bound_else_gene|NA|bound_elsewhere_windowed (ssRNA)
RNA: GGGAGUUCUACAGUCCGACGAUCUUAUUUUUUUAAAAAAAAAAAAGCAAAGCUUUCUGCCAGACUGAGGGUGCUUUUUGGGGGGUGGGAGAAAUGAACUGACAGAUAAACAGUAACUCAGCGUAAGUGACCUGUGGAUCAUCACAACAGAGGAUUGAGCAUCA
B9: chr16:23068607:23068708:-|CDS|ENSG00000103404|msi1|FALSE|unique (ssRNA)
RNA: GGGAGUUCUACAGUCCGACGAUCCCUGCCACAAGGAGCCCUUUCCCACCUGGGAAGAGCAGGACUUCAGACCACAGCUUGAGUAGAGAGGGCUCCAGACAAAGCUUGGGUUCUGACAGAGCCAGCGCCACCUCCACCUCCAAACAACAGAGGAUUGAGCAUCA
B10: chr7:77749912:77750028:+|CDS|ENSG00000187257|unk|total|mutant (ssRNA)
RNA: GGGAGUUCUACAGUCCGACGAUCUGCAGCUUUCUACGUGAUGGGUAUUGUUCAUGGGGCAGCUACUUAUUUACCUGACUUUUCCGACUAUUUUUCAUUUAAUUUUCCCAAUUCACCAGUGAAAAUGGAGAUAUUGGGAAAGAACAACAGAGGAUUGAGCAUCA
B11: chr14:74902662:74902763:+|3pUTR|ENSG00000119689|msi1|FALSE|unique (ssRNA)
RNA: GGGAGUUCUACAGUCCGACGAUCCCCCUGGGGACCAUGUGAUUAAGUUCCUAUCUUUUGAAAGUUUGUUCUGCAGAGACUUCUAGGAGGAUGCUGUGCCUCCCAAGCUCAGAGCAGCCUCUGUCCUGGCUGUGCACAUUCUCCCAACAGAGGAUUGAGCAUCA
B12: chr14:80199969:80200157:-|3pUTR|ENSG00000211448|msi1|total|mutant (ssRNA)
RNA: GGGAGUUCUACAGUCCGACGAUCUUUAUGAUUUCUUGUGAUGUAUUCUUUUAUGAAAUUAACAAGAACUCAUUAUUUUGAGGCCGAGGAAAAUCAAUGCUUUAUCUGAUAUGCUGAGAAAUUAUCCGAUUGCCAAUACUCAUGCAACAGAGGAUUGAGCAUCA
B13: chr10:58277235:58277315:+|CDS|ENSG00000122873|msi1_unk|FALSE|overlapping (ssRNA)
RNA: GGGAGUUCUACAGUCCGACGAUCUAAAGAUCAUCGAAAUAAAGCUAUGAUAAACCUUCACAUCCAGAAAGACAACCCCAAGAUAGUACAUGCUUUUGACAUGGAGGAUUUGGGAGAUAAAGCUGUGUACUGCCGUUGUUGGAGCAACAGAGGAUUGAGCAUCA
B14: chr22:30522798:30525066:-|three_prime_utr|ENSG00000214491|control|control|control (ssRNA)
RNA: GGGAGUUCUACAGUCCGACGAUCGCUACACCGUGGAGGUACUGCUCCCAGACCAAACCUUCAUGGAGAAGAUGGAGAAAUUCUAGGUGAACCUCAUGGUCCCCACACCCUCCUCUUUGAUCUCUGAAUCCACAAUGAGUUCACCAACAGAGGAUUGAGCAUCA
B15: ENSG00000124766:be:win_1901|3pUTR|ENSG00000124766|bound_else_gene|NA|bound_elsewhere_windowed (ssRNA)
RNA: GGGAGUUCUACAGUCCGACGAUCUUAUUUUGCUUCUUGGUCAAGAAAGGAGGGGAGAACCCAGCGCACCCCUCCCCCCCUUUUUUUAAACGCGUGAUGAAGACAGAAGGCUCCGGGGUGACGAAUUUGGCCGAUGGCAGAUGUCAACAGAGGAUUGAGCAUCA
B16: chrX:130230552:130230660:-|CDS|ENSG00000056277|unk|FALSE|unique (ssRNA)
RNA: GGGAGUUCUACAGUCCGACGAUCAUCAGAACGUCCAUGUGAUGAAGACAAGACUGAUUCAGAGACAGGAAAGUUGAUCAUGUUAGUCAAUGAGUUUUAUUAUGGAAGGCAUGAAGGAGUCACUGAGAAAGAGCCAAAGACUUACAACAGAGGAUUGAGCAUCA
B17: ENSG00000136451:be:win_701|CDS|ENSG00000136451|bound_else_gene|NA|bound_elsewhere_windowed (ssRNA)
RNA: GGGAGUUCUACAGUCCGACGAUCGCAGUGUUUGUGGGAAAGGCUUCUCAAGGCCUGACCACUUAAGCUGUCAUGUAAAACAUGUCCAUUCAACAGAAAGACCCUUCAAAUGCCAAACGUGCACUGCUGCCUUUGCCACCAAAGCAACAGAGGAUUGAGCAUCA
B18: chr2:27133116:27133337:-|CDS|ENSG00000138073|control|control|control (ssRNA)
RNA: GGGAGUUCUACAGUCCGACGAUCACCCAGCACGAGGGGCUAGAACUCAGGGUAGAGAAUUUGCAGGCGGUGCAGACAGACUUUAGCUCCGAUCCACUGCAGAAAGUUGUGUGCUUCAACCACGAUAAUACCCUGCUUGCCACUCAACAGAGGAUUGAGCAUCA
B19: chr4:123402332:123402450:+|CDS|ENSG00000164056|unk|total|mutant (ssRNA)
RNA: GGGAGUUCUACAGUCCGACGAUCGACGAAGGGGAUUCCUAUUCAGAUAAUCCUUGCUCCUGUUCACAAUCACACUGCUGCUCCCGAUACCUGUGUAUGGGAGCCAUGUCUUUAUUUUUACCUUGCUUACUCUGUUAUCCUCCUCAACAGAGGAUUGAGCAUCA
B20: ENSG00000198589:be:win_7201|CDS|ENSG00000198589|bound_else_gene|NA|bound_elsewhere_windowed (ssRNA)
RNA: GGGAGUUCUACAGUCCGACGAUCGAGAGUGAAUUUGUUUCCUGCCAGCUUCACCAAUGGAUUGAUCUCAUUUUUGGCUAUAAACAGCAAGGACCAGAAGCUGUCCGAGCCCUCAAUGUGUUCUAUUACUUGACCUAUGAAGGACAACAGAGGAUUGAGCAUCA
B21: ENSG00000109099:stop:overlap|stop_codon|ENSG00000109099|stop_codon|NA|stop_codon (ssRNA)
RNA: GGGAGUUCUACAGUCCGACGAUCCAUUAGAUAAGUCAGACAGAGCCCAAGAGACAACUUCAGUAUUUCUUAAAGACAAGAGUUAGCACUUUGGAGAUGCAAGCCGUGGAAGAGUGGGGCAAGAUAAUUAAGGAUCCUGGACCUCAACAGAGGAUUGAGCAUCA
B22: chr2:165759335:165759570:-|CDS|ENSG00000115339|control|control|control (ssRNA)
RNA: GGGAGUUCUACAGUCCGACGAUCUCUGUUGGCCAGAAUAGCUGAGAACUACACGGCUGUCGUAAGUCCAGAUAUUGCAUCCAUAGAUCUGAACACGUUUGAAUUCAACAAACCUUCUCCUUAUGGAAGUAACCAUAACCGUGGCAACAGAGGAUUGAGCAUCA

target: T1, UNK ZnF1-6 (called full-length); assay: nsRBNS (natural sequence RNA bind-n-seq); RBNS binding buffer (assumed for nsRBNS): 25 mM Tris pH 7.5, 150 mM KCl, 3 mM MgCl2, 0.01% Triton X-100, 500 ug/ml BSA, 20 U/ml SUPERase-In, 4 C; UNK is unkempt and MSI1 is Musashi-1; names of the RNAs are library labels; protein concentration not given here; high values mean tight binding

Binder | binding signal [enrichment R]
B1 | 1.32
B2 | 1.24
B3 | 0.503
B4 | 0.667
B5 | 0.504
B6 | 1.13
B7 | 0.497
B8 | 0.778
B9 | 0.738
B10 | 0.466
B11 | 0.455
B12 | 0.395
B13 | 0.446
B14 | 0.762
B15 | 0.793
B16 | 0.93
B17 | 0.461
B18 | 0.666
B19 | 0.585
B20 | 0.478
B21 | 0.407
B22 | 0.399
